Here are results for 167 variants from the RNAGym collection of RNA variant scans (doi:10.1093/nar/gkz1192).

The source gives no read counts; variants with many changes may rest on few reads.

Sequences and labels used below:
B1: CPEB3 Ribozyme (parent)
chain: UAACAGGGGGCCACAGCAGAAGCGUUCACGUCGCAGCCCCUGUCAGAUUCUGGUGAAUCUGCGAAUUCUGCUGUAUAUCUC

The variants in this data set derive from B1. As to the kind of experiment: self-cleavage, relative activity (ratio to wild type); higher = more cleavage; in vitro, sequencing. The gist of the method: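 CPEB3 self-cleaving ribozyme mutant libraries were made by rounds of error-prone PCR, barcoded, and transcribed in vitro with T7 RNA polymerase for 5 hours at 37°C. Cleavage occurred during transcription and a 15 min DNase I step before EDTA stop. RNAs were reverse transcribed with template switching and Illumina-sequenced, with DNA sequencing mapping barcodes to variants. Relative activity is the variant's cleaved/total read fraction divided by wild type's (minimum 5 reads), averaged across three batches.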
For the variant U31G G42A U49C U60C U80C, the self-cleavage was 0.1. Regarding G33C U48C A64G U80C, the self-cleavage turned out to be 0.05.

Take U31A U49C U51A U74C: the self-cleavage was determined as 0.54.

As for U31C G42C U54C A56G A64G U78C, the self-cleavage was found to be 0.14. The result for U31C C34A A47C A77G reads 0.08; that for U31C U51A U74A, 1.21; that for A35G C40G A45G U60C U74C A75G, 0.53.

U31C U41A U58C: the self-cleavage is 0.18. The result for G33C U51G G70A reads 0.07; that for A35G U41A G52U C68G, 0.18.

Regarding U31A U60C G70C, the self-cleavage came out at 0.13.

As to U31A U41C U54A U78A, the self-cleavage stood at 0.67. The result for U31C U43C C50A U69A reads 0.09; that for U31C U43C U49A U54C U67A, 0.12.

Regarding C32U U48C A57G, the self-cleavage stood at 0.24. The result for C32A U48C C81U reads 0.2; that for U31C U51C A65G, 0.27. The result for U31C U41G U69C reads 0.1; that for U31A U41A A56U, 0.16; that for A35G U41A A56G U76A, 0.28. The result for G33U G42A U49A A57G reads 0.08; that for U31C U43A A45G U60C, 1.02; that for U31A U43A U60C, 0.29. Take C34A U60A A64U U76C: the self-cleavage came out at 0.15.

On to G33C U66A A77U, for which the self-cleavage came to 0.12.

For the variant U31G U51C U60C, the self-cleavage is 0.11.

As to G33A A35C C37U U41C U60C A77G, the self-cleavage is 0.12. Take A35G U41A G63A U72C A75G U80C: the self-cleavage amounted to 0.21. The result for C32U U54C A56G reads 0.09; that for G33A U41C U43C A57G A75G, 0. The result for U31C U51C G52U A56U G61A U66A reads 0.13; that for U31C A35G U54A U72C U80C, 1.21.

Take U31C U43C A45U U48C A56U A57G U69A: the self-cleavage came to 0.05.

As to C34U U51A U67A, the self-cleavage worked out at 0.16. The result for U31C A56U C81A reads 0.35; that for C34U U48C G52U A57G, 0.4; that for U31C U66G C71U U72C, 0.06. The result for G33U A64U U67C reads 0.15; that for U31C C39U A47G G73A, 1.16; that for C34U A45U U58C U67C, 0.1. As for U31C G42A A56U C68A, the self-cleavage was 0.2. The result for A35G U43C U51A reads 1.24. The result for A35G C39A A57G reads 0.55. The result for A35G A64U U66C U72A reads 0.39.

For the variant U31C U69C A77U, the self-cleavage worked out at 0.32.

With U31A U54C U67C U69A, the self-cleavage came to 0.08. Take C32A U43C U80C: the self-cleavage was 0.27. Regarding A35C A56G U67C U69C, the self-cleavage worked out at 0.19. The result for C32A U60C C62G U72C C79U reads 0.17. The result for U31C U49C A56G U80A reads 1.04; that for U31C A45C U54C, 0.16; that for A35G U43A U48C U54A, 1.25. As for A35G A56G U58C C62G A65U, the self-cleavage was determined as 0.26. On to C34U U58C A64G, for which the self-cleavage was determined as 0.1. The result for U31C G46A U60C U72A A77G reads 0.05; that for G33C G42A U58C A77C, 0.05; that for A35G U41A U51C, 0.16. The result for U31G U67G A75G reads 0.34; that for G33U A57G U76A, 0.17.

As to U31A G63U C68A, the self-cleavage is 0.46.

In the case of G33C U43C A64G, the self-cleavage is 0.18. The result for G33U A47G U51A U66G reads 0.09; that for A35G C39U U51A U60C U66A, 0.23; that for U31A U49A A56G, 0.38. For U31C A45G U80C, the self-cleavage stood at 0.69.

Consider U31C U60C C68U, for which the self-cleavage was found to be 0.48. The result for U31C C40U A47G A56G A77G reads 0.16; that for G33A A56G U58C C62U, 0.05. Consider C34U A75U U80C, for which the self-cleavage was 0.43. The result for A35G A45U U48A U72A U78C reads 0.22. For the variant C32A C50A U54A U60A, the self-cleavage stood at 0.2. With U31C A35U A57U U58A A65U, the self-cleavage turned out to be 0.09. The result for A35G U41C A65G U69C U72C reads 0.83; that for C32A U43C A56G, 0.17; that for A35C C37U U41A G61A, 0.13. The result for U31C U48C A65G U67C U76A reads 0.12.

As for U31C A56G A57G, the self-cleavage turned out to be 0.36. The result for U31C G36A U60A reads 0.1.

With A35G G42U U43C, the self-cleavage stood at 0.22.

Regarding U31A A57G U60A A64G U69A, the self-cleavage came to 0.17. The result for C34U A35G U67C U72A reads 0.09. The result for U31A G53C U76C reads 0.48; that for U31C C40U U49C U72C, 0.17; that for C32A A35G U48C U78C, 0.17. The result for U31A A56U U78C reads 0.19; that for G33A A35U C38U A45G A75G, 0.05; that for A35G G73A C79U, 1.31. In the case of U31C A57U A77U, the self-cleavage was determined as 0.49. The result for A35G G36A A47G A64C reads 0.08; that for U31C A45G A57G, 0.48. The result for A35G A45G U49A C79A reads 1.3. The result for U31A U41C G55U reads 0.49. In the case of C32A A45C U49A G70C U78C, the self-cleavage was 0.07. The result for U31A U41C A57U reads 0.29. The result for A35C U43A U51C A65U U66C reads 0.33. The result for A35G A45U C68U U69A A75U reads 0.54. For C32U A47G A56U, the self-cleavage amounted to 0.15.

In the case of U31A U48C U51A C81U, the self-cleavage stood at 0.4. On to C34U A57U A64G, for which the self-cleavage was determined as 0.17. The result for U31C G33A U78C reads 0.35.

For G33U A47G U54A A57G, the self-cleavage worked out at 0.34. The result for G33A A47U U80A reads 0.07; that for C34A A56U U72A, 0.08. For A35G U41A U51C U67C, the self-cleavage came out at 0.16.

Turning to U31C U48C A57G A65G, the self-cleavage was 0.38. The result for U31A A47G U72G U80C reads 0.91; that for A35G U43A U51A, 1.29.

Take U31A C40U U54C C79A: the self-cleavage turned out to be 0.17.

Regarding G33A U54A A56U, the self-cleavage came out at 0.23.

Turning to U31C G33A A45U U49C U51A U72C, the self-cleavage amounted to 0.14. The result for U31C A45G U58A reads 0.08; that for U31C A45G U54C, 0.32; that for U31A C32A A56U U60C, 0.11.

Consider C34U U48C U66C U69A U78A, for which the self-cleavage stood at 0.13. The result for G33A U49C U60A reads 0.3; that for G33U U72C A75G, 0.15; that for C32U A35G U72C, 0.27. The result for U31G A56G U69A U72C reads 0.15; that for G33A U58A U67A, 0.39. The result for U31C A45G U48C U74C reads 0.13; that for A35G C50A A65C, 0.18. In the case of A35G U43A U49C A56U U67G U74C, the self-cleavage was found to be 0.33. For A35C G63A U69C, the self-cleavage worked out at 0.28. The result for U31C A45G A56U U58C U69A reads 0.12. The result for U31C A45G U69C reads 0.26; that for A35G A56U U60A, 0.89; that for A35G U41C U80C, 1.28. The result for C34G A35G U48C reads 0.11; that for A35C A47G U60C, 0.28.

In the case of G33U A57C U60C A65G U76A U80C, the self-cleavage worked out at 0.07. The result for U31C A57G G70U reads 0.18; that for A35G A45G A47G U66A, 0.87. Take A35C A65G A77U: the self-cleavage stood at 0.26. A35G U41C U49C A64G: the self-cleavage was determined as 0.45. On to C32G U43C U69C U72C U76C U80A, for which the self-cleavage was determined as 0.05. The result for U31A A47G U72C reads 0.42; that for U31C A35C A47U U60C U69A, 0.06; that for U31A U69G U74C A75G, 0.24. The result for C34A U43C A64G reads 0.13. The result for C32A U48A U54C reads 0.12; that for G33A U48C U54C, 0.34; that for C32A C59U U76C U80C, 0.23. On to A35G C44U A75U U80C, for which the self-cleavage was determined as 1.16.

With C32G G36A U41A A45G U60A U66C U69A, the self-cleavage worked out at 0.1. The result for C32U U43C C79A reads 0.24; that for C34U U54A U60C U69C U78A C81G, 0.17.

Turning to U31C U60A U69A, the self-cleavage was 0.21. The result for C32U U41C U43A U60G reads 0.13; that for U31A U48C A56U U78C, 0.11; that for A35C A45G A57G C59G U67C U80C, 0.11. The result for G33A A64G C81U reads 0.22; that for G33A A35U U51A U80C, 0.22. The result for C32G C62A U72C reads 0.1; that for U31C U43A U72C, 0.44. In the case of A35G G42A U72C, the self-cleavage came out at 0.7. For C32A U41C A64G A75U, the self-cleavage was found to be 0.47.

Take U31C U51A A64G: the self-cleavage amounted to 0.33. In the case of C32U U49C U72A, the self-cleavage was found to be 0.26. The result for U31C U49C U51A A56G U72A reads 0.66; that for C32A G46U A47G A75G, 0.04; that for A35C A57U A64G A65U, 0.13. The result for C32U U54A G55A reads 0.23. The result for U31C G53U U60A U66C G73U reads 0.29. For the variant C32G A56G U69G G73A, the self-cleavage amounted to 0.06. The result for C34U A35G U51C U78C reads 0.1. The result for U31G A35U A47G U74C reads 0.24; that for U31C A47C U60C A65G, 0.12.
